Test results: PubChem BioAssay AID1508642 (National Center for Advancing Translational Sciences (NCATS), 2021)
About 200 (0.47%) of roughly 43,000 compounds were called active. Not shown: some 12% with an inconclusive outcome. Calls follow the shape of the dose curve; as a rule, active = well fitted cell-killing curve with a large enough effect; inconclusive = small, poorly fitted or top-dose-only effect, or effect the other way; inactive = flat fitted curve, though single readings scatter. This is one part of the list.

test: Cell viability qHTS assay in S16 Pmp22-F2sN cells; conditions: S16 Pmp22-F2sN Schwann cells (luciferase reporters placed in the Pmp22 gene) viability, CellTiter-Glo, 24 h; series mostly up to 57.5 µM; activity change, negative = cytotoxicity: at the top concentration; also: nearly all actives have a fitted effect of over 65% in size
How it was run: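 Seed 500-1,000 S16 Pmp22-F2sN cells per well in phenol-red-free DMEM with 10% heat-inactivated FBS; pin-add 23 nL compound; incubate 24 h at 37C; add CellTiter-Glo, wait 15 min protected from light; read luminescence.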
% is scaled to controls: 0 for no effect and ±100 for the full control effect.

Compound	activity change, negative = cytotoxicity
COc1ccccc1N1CCN(c2ccc(=O)n(CC(=O)O)n2)CC1	inactive: 9.45%
O=C(COc1ccc(Cl)cc1)Nc1ccc(O)c(-c2nc3ccccc3s2)c1	inactive: -6.99%
Cc1ccc(Cn2c(C(=O)O)c(CNCCc3cccs3)c3ccc(C)cc32)cc1	inactive: 28.7%
O=C(NC1CC(=O)N(c2ccc(F)cc2)C1)c1ccc(S(=O)(=O)N2CCCC2)cc1 (stereo not drawn)	inactive: 19.2%
CCN(C(=O)CSc1nc2ccccc2nc1Cc1cccc(OC)c1)c1cccc(C)c1	inactive: -2.53%
Cc1ccc(NC(=O)Nc2nc3c(s2)CCCCCC3)cc1C	inactive: 17.3%
Cc1cc(Br)ccc1NC(=O)COc1cc(=O)n(C)c2ccccc12	inactive: -1.97%
COc1ccccc1NC(=O)c1ccc2[nH]c(C)cc(=O)c2c1	inactive: -0.707%
COc1ccc(OCc2nc(-c3ccc(OC)c(OC)c3)no2)cc1	inactive: 23.2%
CC(=O)Nc1ccc(C)cc1-c1nc2ccccc2n(Cc2cccc(Br)c2)c1=O	inactive: -1.17%
CCCc1nc2nc(C)c(NS(=O)(=O)c3ccc(C)c(C)c3)c(=O)n2[nH]1	inactive: 5.04%
CCOC(=O)C1CCCN(C(=O)c2ccc(C)c(NC(=O)c3nsc4ccccc34)c2)C1 (stereo not drawn)	inactive: -1.53%
COc1cccc(NC(=O)CSc2nnc3[nH]c(=O)cc(-c4ccccc4)n23)c1	inactive: -11.4%
CCc1ccc(NS(=O)(=O)c2cc(Br)cc3c2N(C(C)=O)CC3)cc1	inactive: 0.225%
COc1ccc(CCNc2oc(/C=C/c3ccc(OC)c(OC)c3)nc2C#N)cc1	inactive: 3.03%
CC(=O)Nc1c(C)nn(-c2ccccc2)c1N1CCC(C(=O)Nc2ccc(C)cc2Cl)CC1	inactive: 0.561%
COc1cccc(-n2ccnc2SCC(=O)Nc2nc3ccc(C)cc3s2)c1	inactive: 0.702%
CCC(=O)N1c2ccccc2CC1C(=O)NCCc1ccccc1OC (stereo not drawn)	inactive: -14.8%
CCc1ccc(-n2nc(C)c3c(C(=O)Nc4ccc(Cl)cc4)cc(C)nc32)cc1	inactive: 0.0515%
Cc1ccc(C)c(-c2ccc(=O)n(C(C)C(=O)Nc3ccccc3C(F)(F)F)n2)c1 (stereo not drawn)	inactive: -0.126%
CCCCNC(=O)CSc1nc(-c2ccc(OC)cc2)cc(C(F)(F)F)n1	inactive: 16.6%
CCCOc1ccccc1C(=O)N1CCCCC1CCN1CCCCC1 (stereo not drawn)	inactive: 1.16%
Cc1ccc(OCC(=O)Nc2nnc(SCc3cc(=O)n4cc(C)ccc4n3)s2)cc1	inactive: 7.14%
Cc1noc(-c2ccc(N(C)Cc3ccccc3)c([N+](=O)[O-])c2)n1	inactive: -23.6%
COC(=O)c1ccccc1NC(=O)CCn1c(=O)c2cccn2c2cccnc21	inactive: 2.79%

Compound	activity change, negative = cytotoxicity
COc1ccc(C(=O)Nc2cc(-c3nc4ncccc4o3)ccc2C)cc1Br	inactive: 12.8%
COc1ccc(OC)c(-n2nnc(-c3nc(-c4ccc5c(c4)OCO5)no3)c2C)c1	inactive: -3.64%
O=C(NC1CC(=O)N(c2cccc(F)c2)C1)c1ccc(S(=O)(=O)N2CCCCC2)cc1 (stereo not drawn)	inactive: 6.57%
CCCN(CCC)C(=O)Cn1c(=O)n(-c2ccc(CC)cc2)c(=O)c2c3c(sc21)CCC3	inactive: 11.2%
CCOC(=O)C1CCN(C(=O)c2ccc3c(=O)n4nc(Nc5ccccc5)sc4nc3c2)CC1	inactive: 4.17%
COc1ccc(NC(=O)C2(S(=O)(=O)c3ccc(C)cc3)CC2)c(OC)c1	inactive: 1.56%
O=C(Nc1ccccc1F)C(c1ccccc1)N1Cc2ccccc2C1=O (stereo not drawn)	inactive: -1.45%
O=C(CSc1nccn1Cc1ccc(F)cc1)NC1CCCC1	inactive: 6.75%
CCCOC(=O)c1ccc(NC(=O)C2CC(=O)N(c3ccc(C)cc3)C2)cc1 (stereo not drawn)	inactive: 21.4%
Cc1ccc(CN(C(=O)COc2cccc(Cl)c2)c2ccccn2)o1	inactive: 5.12%
CCOc1ccc(NC(c2ccc(Cl)cc2)c2nnc(-c3cccc(F)c3)o2)cc1 (stereo not drawn)	inactive: 13.7%
COc1cc(O)ccc1-c1nc2ccc(Br)cn2c1Nc1ccccc1C	inactive: 2.22%
CCOc1ccc(NC(=O)c2sc3nc4n(c(=O)c3c2C)CCCC4)cc1	inactive: -2.69%
Cc1cc(Cl)ccc1NC(=O)CS(=O)(=O)c1cccc2nsnc12	inactive: -1.88%
Cc1cccn2c(=O)c3cc(C(=O)NC(C)(C)C)n(C)c3nc12	inactive: 14.7%
CCOC(=O)C1CCN(c2nc3c(S(=O)(=O)c4ccc(CC)cc4)nnn3c3ccc(Cl)cc23)CC1	inactive: -3.52%
CC(=O)c1ccc(NC(=O)C2CCCN(S(=O)(=O)c3ccc(Br)s3)C2)cc1 (stereo not drawn)	inactive: -0.559%
CCc1ccc(NCc2cc3ccc(OC)cc3n(CC(=O)Nc3ccccc3OC)c2=O)cc1	inactive: 11.1%
COC(=O)c1sc2cccc(F)c2c1S(=O)(=O)NC(C)c1ccccc1 (stereo not drawn)	inactive: 0.201%
Cc1cccc(NC(=O)c2ccc(F)c(S(=O)(=O)NCc3ccc4c(c3)OCO4)c2)c1	inactive: -1.84%
Cc1ccn2c(Nc3ccc4c(c3)OCO4)c(-c3ccc(C)o3)nc2c1	inactive: -17.9%
Cc1cc(C)cc(NC(=O)CSc2oc(-c3cccs3)nc2S(=O)(=O)c2ccc(Br)cc2)c1	inactive: -14.4%
CCOc1ccc(N2CC(NC(=O)c3cc4ccccc4o3)CC2=O)cc1 (stereo not drawn)	inactive: 6.9%
CCCOC(=O)c1c(NC(=O)c2cc3nc(-c4ccc(OC)cc4)cc(C(F)(F)F)n3n2)sc2c1CCCC2	inactive: 5.53%
COc1cccc(NC(=O)CSc2c(C)cnc3c2c(=O)n(C)c(=O)n3C)c1	inactive: 0.237%

Compound	activity change, negative = cytotoxicity
COc1cc(Cl)c(C)cc1NC(=O)c1nn(-c2ccc(C)cc2)c(=O)n(C)c1=O	inactive: 0.705%
Cc1ccc(CSc2nc3ccncc3n2Cc2nc(-c3ccc(Cl)cc3)oc2C)cc1	inactive: -19.2%
COc1ccccc1N1CCN(C(=O)c2cnn(C(C)(C)C)c2C2CCN(C(=O)OC(C)(C)C)CC2)CC1	inactive: -5.26%
CCOC(=O)c1ccc(NC(=O)C(=O)NCCc2ccc(OC)cc2)cc1	inactive: -2.81%
COc1ccc2oc(=O)c(C(=O)N3CCN(c4cc(Cl)ccc4Cl)CC3)cc2c1	inactive: 3.34%
Cc1ccc(C)c(NC(=O)Cn2c(-c3nonc3N)nc3ccccc32)c1	inactive: 5%
Cc1ccc(-c2nc(CCNC(=O)C(=O)Nc3ccc(F)cc3F)cs2)cc1	inactive: 13.5%
Cc1ccc(C(=O)Nc2cc3cc(Cl)ccc3oc2=O)cc1	inactive: -6.18%
CC(C)C(=O)Nc1c(C(=O)N2CCN(c3ccccc3F)CC2)oc2ccccc12	inactive: 0.39%
Fc1ccc(C(c2nnc(-c3ccccc3)o2)N2CCN(c3ccccc3)CC2)c(Cl)c1 (stereo not drawn)	inactive: 6.52%
Cc1ccc(-c2nc3sc(CCNC(=O)c4ccco4)c(C)n3n2)cc1	inactive: 0.743%
Cc1ccc2c(c1)N(CC(=O)NCCCN1CCCCC1)C(=O)c1cccnc1O2	inactive: 2.71%
COc1ccccc1CNC(=O)CCCN1C(=O)CCn2nc(-c3cn(C)c4ccccc34)cc21	inactive: -0.298%
COc1ccccc1NCc1nnc2n1CCCCC2	inactive: 0.729%
Cc1ccc(-c2nc(C(=O)Nc3cccc(C#N)c3)c3n2CCCCC3)cc1	inactive: -0.208%
Cc1cccc(C(=O)OCc2cc(=O)n3nc(C4CC4)sc3n2)c1	inactive: 25.9%
COc1ccc(-c2nc(SCC(=O)Nc3ccc4c(c3)OCO4)c(-c3ccc(F)cc3)[nH]2)cc1OC	inactive: -4.3%
CCOc1ccccc1NC(=O)CCc1nc(-c2cccc(C)c2)no1	inactive: 3.48%
O=C1c2ccccc2C(=O)C1(c1ccccc1)N1CCN(c2cccc(C(F)(F)F)c2)CC1	inactive: -0.349%
Cc1ccc(NC(=O)N2CCC(CN3CCCCCC3)CC2)c(Cl)c1	inactive: 24.9%
CC(C)c1ccc(N2C(=O)CSC23C(=O)N(Cc2ccccc2F)c2ccccc23)cc1 (stereo not drawn)	inactive: -2.28%
Cc1nc(-c2ccc(S(=O)(=O)Nc3ccc(OC(F)(F)F)cc3)cc2)co1	inactive: -3.44%
CCCNC(=O)c1c(NC(=O)c2ccccc2F)sc2c1CCCCC2	inactive: 5.62%
CCC(=O)N1CCc2cc(S(=O)(=O)NCCC(=O)NCc3ccc(OC)cc3)ccc21	inactive: -7.25%
COc1cccc(-n2c(=O)c3sccc3n(Cc3cc(=O)n4cc(Cl)ccc4n3)c2=O)c1	inactive: 8.21%

Compound	activity change, negative = cytotoxicity
Cc1nc2nncn2c(Nc2ccc(F)cc2)c1C	inactive: -11.2%
Cc1cc2nc(-c3cccc(NC(=O)COc4ccc(C(C)C)cc4)c3)oc2cc1C	inactive: 14%
Cc1ccc(N(C)S(=O)(=O)c2c(-c3ccccc3)csc2C(=O)O)cc1	inactive: 6.8%
COc1ccc(N2CCN(C(=O)c3c(C)oc4nc(C)nc(N5CCCC5)c34)CC2)cc1	inactive: 3.35%
Cc1ccccc1-c1nnc(SCC(=O)N2CCCc3ccccc32)o1	inactive: 1.36%
COc1ccc(-c2nc(C)c(CCNC(=O)c3cccs3)s2)cc1	inactive: 6.44%
CCOc1ccc(NC(=O)c2ccc3c(c2)c(C)c(C)n3Cc2ccc(F)cc2)cc1	inactive: -16.7%
Cc1ccc(NC(=O)Cn2ncc3c4ccccc4n(Cc4ccccc4)c3c2=O)cc1Cl	inactive: 22.4%
Cc1ccc(C)c2sc(N3CCN(C(=O)c4ccco4)CC3)nc12	inactive: 9.47%
Cc1cn2c(=O)c(S(=O)(=O)NC(C)c3ccccc3)c(C)nc2s1 (stereo not drawn)	inactive: 11%
Cc1ccc(S(=O)(=O)c2nnn3c2nc(N2CCCCC2)c2sccc23)cc1	inactive: 9.05%
CCN(CC)S(=O)(=O)c1ccc(NC(=O)[C@H](CCSC)N2Cc3ccccc3C2=O)cc1	inactive: -9.42%
CCn1ccc2cc(S(=O)(=O)N3CCCN(C(=O)Nc4ccc(C)cc4)CC3)ccc21	inactive: -0.518%
NC(=O)Cn1c(=O)n(-c2ccc(F)c(Cl)c2)c(=O)c2sc3ccccc3c21	inactive: 5.77%
Cc1ccc(N2CCN(c3cc(C)nc4c(-c5ccc(Cl)cc5)c(C)nn34)CC2C)cc1 (stereo not drawn)	inactive: 3.78%
CCc1nc(SCc2cc(=O)c3cc(F)ccc3[nH]2)n[nH]1	inactive: 18.4%
Cc1cc(C)cc(N(C)S(=O)(=O)c2nnc(NC(=O)COc3ccc(Cl)cc3)s2)c1	inactive: -0.64%
CC(=O)c1cccc(NC(=O)CN2C(=O)CN(C)C(=O)c3ccccc32)c1	inactive: -0.816%
CCOc1ccc(Cn2c(CNS(=O)(=O)c3cccs3)nc3cccnc32)cc1	inactive: 0.0162%
Cc1cccc(Cn2c(-c3cccs3)nc3ccccc32)c1	inactive: 2.15%
Cc1ccccc1NC(=O)CCc1c(C)nc2c(c1C)c(=O)n(C)c(=O)n2C	inactive: 6.63%
CCc1ccc(OCC(=O)Nc2c(C(=O)c3ccccc3)oc3ccccc23)cc1	inactive: -1.53%
Cc1nc(-c2cccc(S(=O)(=O)N3CCC(C(=O)NCc4ccccc4)CC3)c2)no1	inactive: -13.2%
